The list shows a part of the results.
What follows are sequences tested against no compound (DMSO) (assay: log2 fold change of degron read counts, EGFP-low vs EGFP+ sorted cells; higher = lower degron-EGFP level without compound (poor expression or instability)). Conditions: compound: DMSO control; 18 h.
With FVCNICGAQFTQKGNLLRHIKL the “log2 fold change of degron read counts” value was -1.16. For LMCEICGFTCTQKGNLLRHIKL, the “log2 fold change of degron read counts” value was -0.569. For FDCNICGAFFTQKGNLLRHIKL, the “log2 fold change of degron read counts” value was 0.794. With FVCPICGRKFTQKGNLLRHIKL the “log2 fold change of degron read counts” value was -0.559. In the case of FLCEICGHAFTQKGNLLRHIKL, the “log2 fold change of degron read counts” value is reported as -1.94. In the case of FRCNICGAWFTQKGNLLRHIKL, the “log2 fold change of degron read counts” value is reported as 0.201. With FYCNVCGAIFTQKGNLLRHIKL the “log2 fold change of degron read counts” value was 0.66. For FCCEVCGAYFTQKGNLLRHIKL, the “log2 fold change of degron read counts” value was -0.528. FNCNQCGACFTQKGNLLRHIKL was tested, and the “log2 fold change of degron read counts” value was -0.745. With FHCDICGATFTQKGNLLRHIKL the “log2 fold change of degron read counts” value was -1.96. FSCEICGRNFTQKGNLLRHIKL was tested, and the “log2 fold change of degron read counts” value was -1.68. FCCEICGRDFTQKGNLLRHIKL was tested, and the “log2 fold change of degron read counts” value was -1.64. With FYCPQCGAQFTQKGNLLRHIKL the “log2 fold change of degron read counts” value was -0.0917. With FMCSVCGHIFTQKGNLLRHIKL the “log2 fold change of degron read counts” value was 0.528.

From the supplement of paper PMC12645437, “Orthogonal IMiD-Degron Pairs Induce Selective Protein Degradation in Cells” (ACS Chemical Biology, 2025)
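Note: jurkat cells carrying a lentiviral library of mutant zinc finger degrons fused to EGFP plus mCherry, mCherry+ cells FACS sorted, degron abundance counted by next-generation sequencing.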
